Data from the supplement of paper PMC3724861.
Some of the results follow.

system: T1, Caupolican (Caup) homeodomain DNA-binding domain; test: PBM E-score (8-mer, recovered from the published 9-mer minima) (E-score (dimensionless, -0.5 to 0.5)); Drosophila protein; higher = stronger relative binding preference, active = 0.31 or more
T1 sequence: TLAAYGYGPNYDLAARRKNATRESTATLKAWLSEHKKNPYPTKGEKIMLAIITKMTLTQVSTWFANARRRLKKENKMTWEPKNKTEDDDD
Method in brief: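 Caup's homeodomain DNA-binding domain (residues 214-303) was made by in vitro transcription and translation and applied at 100 nM to custom-designed protein binding microarrays. Each value is an enrichment score that gives relative binding preference for a short DNA word, with higher meaning stronger. The 8-mer values were recovered from published 9-mer scores, each of which was the minimum of its two constituent 8-mer scores. A cutoff of 0.31 marks candidate sites.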

Sequence	PBM E-score
ACCATCAA	inactive: 0.0235
CTAATATC	inactive: 0.0723
GCCAGATA	inactive: 0.0198
ACGTCATA	inactive: 0.144
CCTATAGC	inactive: -0.0609
CTTAGGTC	inactive: -0.112
ATCCCACG	inactive: -0.115
AGCATACG	inactive: -0.0321
CGCTCAGA	inactive: -0.0619
CCTTCGGA	inactive: -0.217
AGCGCATA	inactive: 0.0861
AACTGCCA	inactive: -0.103
AATAGACG	inactive: 0.0464
ATTGTGAG	inactive: -0.00149
ACGCCAAT	inactive: -0.0189
CCTCGCAG	inactive: -0.211
CATGCGAA	inactive: 0.048
CTGTAAAG	inactive: 0.0792
CCCTCATC	inactive: -0.071
CCTGCCCA	inactive: -0.155
CCGTGGAG	inactive: -0.191
CAGTCCGA	inactive: -0.0187
GCCGTACC	inactive: -0.214
ACGAAATA	inactive: 0.136
CAGGCCGG	inactive: -0.192

Sequence	PBM E-score
GTCGAGGA	inactive: -0.0553
ACCATGCC	inactive: -0.0174
AACCACAG	inactive: -0.00398
TAGATACA	inactive: 0.258
AAGGCGTC	inactive: -0.129
CAGTCAGG	inactive: -0.056
CGCCTGTC	inactive: -0.0132
CAAGAGAG	inactive: -0.0747
GAAATATA	inactive: 0.19
ATCACTGA	inactive: 0.0623
CTACTGCA	inactive: 0.092
ATCGTCAG	inactive: 0.0328
AGCCTAAC	inactive: -0.0972
CAATCCGA	inactive: 0.0536
AGTGGCCC	inactive: -0.198
GCCCCACC	inactive: -0.234
AAAGAATG	inactive: 0.146
AACCTCCT	inactive: -0.0171
GACCTGGA	inactive: -0.125
ACATAAAT	active: 0.318
CAGTCGAG	inactive: -0.131
GGACTAAC	inactive: 0.0611
AGGTCATA	inactive: 0.0294
CCAGTGCA	inactive: -0.0461
AGCAACAT	inactive: 0.244

Sequence	PBM E-score
CCGAGCTC	inactive: -0.14
AAACCACC	inactive: -0.105
CCTGCGGC	inactive: -0.288
ACTACCCA	inactive: -0.0238
CCCCGGGA	inactive: -0.227
AGAAGATC	inactive: -0.0662
AAGCCGAT	inactive: -0.016
GGCCCAGA	inactive: -0.262
ATAATCAC	inactive: 0.159
TTACAAAA	inactive: 0.203
ATATGTTC	active: 0.347
GGTATGAC	inactive: 0.0376
CCTCTGAA	inactive: -0.139
CCTCGTCC	inactive: -0.118
CCGTGCTC	inactive: 0.0654
TGAGATAA	inactive: 0.0767
GTGGAATA	inactive: 0.0463
ACTCCGCG	inactive: -0.143
GACGAGCA	inactive: -0.0101
ACGACAGA	inactive: 0.0786
CGCCAAAA	inactive: -0.109
ACTTCGAC	inactive: 0.0234
CATGCTGG	inactive: 0.0451
ATCCAAGA	inactive: 0.0394
CTCTGATC	inactive: -0.0475

Sequence	PBM E-score
AGGAACTG	inactive: -0.0798
CATTCTTA	inactive: 0.0205
ATGTTGTG	inactive: 0.282
ACCGGCGC	inactive: -0.159
CTGTTACC	inactive: 0.142
GCGTAGAC	inactive: -0.149
TCGACCAA	inactive: -0.0712
GTGGCGTA	inactive: -0.00325
TATTCCAA	inactive: 0.0797
ATGGACGA	inactive: 0.0414
GCTCTAGA	inactive: -0.155
ATGTGGAC	inactive: 0.167
CTACTTGA	inactive: 0.136
CACAACCG	inactive: 0.119
ATAAGATC	inactive: 0.0436
CAGATCCC	inactive: -0.111
CCTTCTTA	inactive: -0.0401
GGCAGCCA	inactive: -0.198
CGTGAAGA	inactive: -0.00622
CTGGACGC	inactive: -0.187
GAATATCA	inactive: 0.0584
AGGACCGG	inactive: -0.193
GGACCGGA	inactive: -0.113
TAACACTA	inactive: 0.237
ACCGGGAG	inactive: -0.137

Sequence	PBM E-score
ATGTCTCC	inactive: 0.189
ACCAAAAC	inactive: -0.016
ACGACCTC	inactive: 0.0193
AGGTATTG	inactive: 0.115
ATTGTTTA	inactive: 0.186
GAACACTA	inactive: 0.103
CTTGTTCC	active: ≥ 0.337
CATTGTAG	inactive: 0.0869
GAAACTAC	inactive: 0.164
ATATACAT	active: 0.367
CCTCCAGC	inactive: -0.243
AAATTCCT	inactive: -0.0223
CGTGTCAG	inactive: 0.276
CAGGCTAG	inactive: -0.202
ACGCACGA	inactive: -0.00376
CTGTGAAA	inactive: 0.0676
ATAGTTCG	inactive: 0.094
ATGCGTCC	inactive: -0.111
GGACGCAA	inactive: -0.116
ATAGTAAC	inactive: 0.226
GCGAGCTA	inactive: -0.0948
AGAGTAAA	inactive: 0.0325
ACGTTACT	inactive: 0.105
AACACAAA	inactive: 0.207
TCAAAGCA	inactive: 0.0158

Sequence	PBM E-score
CATTGTCG	inactive: 0.0947
ACAGTCAA	inactive: 0.0187
TAACAGTA	inactive: 0.142
CTCGAACC	inactive: -0.035
CACAGGAG	inactive: 0.0312
CTGTGTGC	inactive: -0.0744
CGCTACGA	inactive: -0.0623
CGTGCCCC	inactive: -0.14
CATGCTAC	inactive: 0.15
GATAGCCA	inactive: -0.0628
AGGCCCAG	inactive: -0.214
CTGATAAA	inactive: 0.131
ACCGAGTC	inactive: -0.0964
ACCGACAG	inactive: -0.082
CCCGACCC	inactive: -0.206
ACTATATA	inactive: 0.167
AAGTTTCA	inactive: 0.018
CGCACACA	inactive: -0.0192
GGCGCCAA	inactive: -0.109
CGTCAGTC	inactive: -0.0655
AGTTGAGA	inactive: -0.0383
GCTTGCTA	inactive: -0.0628
TATACTAA	inactive: 0.179
ATTTACGC	inactive: 0.0107
ATATTCGG	inactive: 0.0222

Sequence	PBM E-score
GGCGGCCA	inactive: -0.196
ACGTGCCA	≥ 0.0232
GGACCGTA	inactive: -0.147
CCCGCGGG	inactive: -0.221
ATCGTCTG	inactive: 0.00406
AACAACGT	inactive: 0.252
GCACAGCA	inactive: -0.00134
CCGGAGTA	≥ -0.0149
CTGCGTTC	inactive: -0.0733
CATACCAA	inactive: 0.164
AGACGATC	inactive: -0.0741
ACTGGGAC	inactive: 0.0611
GCACAGAA	inactive: -0.0167
GAGTAACC	inactive: -0.034
GGAAGGTA	inactive: -0.0159
GAGGGGCA	inactive: -0.162
GGGGGGAA	inactive: -0.279
GAAAGATC	inactive: -0.09
CTGTATGC	inactive: 0.0355
CAATAGGC	inactive: -0.0224
AGTGCTAT	inactive: 0.0743
CAATGAGG	inactive: -0.0553
AAGGCGCA	inactive: -0.0698
AGAACCCC	inactive: -0.194
CTGGGGCA	inactive: -0.226

Sequence	PBM E-score
TAACGTCA	≥ 0.0839
GTAAACGA	inactive: 0.0684
GCGAGAAA	inactive: -0.09
GTGACTGA	inactive: 0.103
AACCGGCC	inactive: -0.2
CCAATGCA	inactive: 0.0557
AGAGAAAC	inactive: 0.108
CTCGTATA	inactive: 0.0503
CCTGTTCG	inactive: 0.0935
GGGATTCA	inactive: -0.0518
AACTTCAT	inactive: 0.108
TGTATGAA	inactive: 0.195
ACATCCAG	inactive: 0.177
AGGTGAAT	inactive: 0.0215
CGATAGCC	inactive: -0.126
CACGACGG	inactive: 0.00986
CCGAAAGG	inactive: -0.109
CCACCTCG	inactive: -0.215
AAAAGTAA	inactive: 0.107
ACTGCCTA	inactive: 0.0161
CTGGTAAA	inactive: 0.0826
ATCGTTGC	inactive: 0.0388
ATTGAACG	inactive: 0.0649
AGCGTAAG	inactive: -0.163
ATCACGAG	inactive: 0.0314

Sequence	PBM E-score
AGGACCAG	inactive: -0.123
AAGCAAAT	≥ 0.13
CAGCCTAG	inactive: -0.117
ACGCTTTG	inactive: -0.0992
GCTATCCC	inactive: -0.124
ACTCTGAT	inactive: 0.026
CGCGGACG	inactive: -0.166
GGCACAGA	inactive: -0.103
AGCCGCCT	inactive: -0.222
CCCTTCTA	inactive: -0.0818
ACTGGCGC	inactive: -0.147
GGTTGCCA	inactive: -0.079
GCAGCGAC	inactive: -0.118
GGACGGAA	inactive: -0.0946
ACAAGATA	active: 0.342
CGCCAACG	inactive: -0.132
AGCCCCCG	inactive: -0.288
GGTACGGA	inactive: -0.0204
AGGGTAGA	inactive: -0.154
ACTGCGAA	inactive: -0.0547
AGCTAGGC	inactive: -0.138
ACGTCCCA	inactive: -0.0135
